Laboratory results from the supplement of paper PMC4466236.
Over roughly 33,000 sequences, “E-score (dimensionless, -0.5 to 0.5)” has its median near -0.058; the highest 2% begin near 0.35. Some of the results follow.

tested on: MvaT; test: PBM 8-mer E-score (mean of HK and ME arrays) (E-score (dimensionless, -0.5 to 0.5)); higher = stronger relative binding preference; most listed sequences are background and not binding sites
How it was run: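 Full-length P. aeruginosa MvaT, with glutathione S-transferase fused to its N-terminus (cloned into pTH6838 by isothermal assembly), was tested by protein binding microarray using a previously described protocol. Two universal double-stranded 60-mer arrays (ME and HK) were used, each with a constant 25-mer primer region and a variable 35-mer region covering all 8-mers. The rank-based 8-mer E-score (-0.5 to 0.5) is the mean of the two arrays, parsed with a custom Python script.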

Sequence	PBM 8-mer E-score
CAGTGGCC	-0.178
CCCCTTGC	-0.316
CAAATAGC	0.0989
CTCCTGTA	-0.0796
GGTCGAAC	-0.0987
AAGGTCGA	0.00108
GGTAGTAA	0.159
CACCGTCA	-0.178
AGATTGCG	0.0138
GCGCGCTA	-0.0482
GTATCTCA	0.0502
GGAGAAAA	-0.143
AGATGACA	-0.0249
TCATCTAA	0.14
CAGAGCTG	-0.159
AATCAGAC	-0.0697
CTGGGAAA	0.00808
AGTCATAA	0.163
GCCGTAAA	-0.0198
CAATCGTG	-0.0354
CCGGGGCG	-0.253
CATCCACG	-0.19
GCCATGCA	-0.255
ATTCTTTA	0.259
CCACAACG	-0.173

Sequence	PBM 8-mer E-score
TATCCGGA	-0.0438
ACGCTCCC	-0.33
AAGCCATA	-0.0171
GAACGGTC	-0.239
TCTTTTCA	0.0731
GAAGCTTA	0.0379
AACTGACA	0.12
ATTACCAC	0.17
AGGAAAAT	0.122
AATATATC	0.445
GATTAAGA	0.157
AATACCAA	0.227
GGATCAGA	-0.221
AACTAATC	0.187
CTATGTAC	0.112
GAGACGGC	-0.291
CGGCACCA	-0.148
CAGTGCCA	-0.178
AGGTTTGG	-0.0442
ACAAGTCC	-0.158
ATCTAGAT	0.104
GAATAACA	0.2
ATCAGTCA	-0.0954
ATGAACTC	-0.04
CTCTTAGC	-0.0824

Sequence	PBM 8-mer E-score
GTGTACAA	0.168
AGGAGAAA	-0.112
CTCTATGA	-0.117
AAATTGCG	0.208
AATAGACA	0.0704
GACCACTA	-0.0287
ACCGGAGT	-0.185
GGCTTTAC	-0.0927
TATCGACA	0.226
ACAAGTCT	-0.0548
CCCGACGG	-0.229
ATAAGTTC	0.368
TATCGCCA	0.147
CATCACAA	-0.0723
AAAGCCGG	-0.0727
AGACATAT	0.241
CACTCGTC	-0.185
GAACTACA	0.138
GTGATCCA	-0.0772
GGGAGCCA	-0.274
AGATAGTA	0.253
AGCGGCGC	-0.215
CGACATCA	-0.101
GCCCTTAA	-0.000377
GAAGGGTC	-0.257

Sequence	PBM 8-mer E-score
AAAATTAA	0.387
CTTTCACA	-0.00139
AACAAGAG	0.146
CATGCCAC	-0.116
GCGGCCTA	-0.148
CTACTCAG	-0.22
AATGCCTG	-0.0755
AGCGGTCC	-0.317
TACGTGAA	0.115
CTAAGGGA	-0.123
GAAGAGGA	-0.13
ACTCTTCT	-0.0108
AGGTCCGA	-0.238
CTAGCTCC	-0.0314
AACAATGA	0.201
CCCTCCCC	-0.41
ATTCTAAG	0.248
AATGTCTC	0.028
CCACCCCG	-0.32
CCTCAAAC	-0.125
ACCGCTGG	-0.0631
CGCCCAAC	-0.0513
CAATGCGA	-0.195
AGGGACAG	-0.212
TCTCAACA	0.049

Sequence	PBM 8-mer E-score
GAACTCGC	-0.161
AGAGTAAT	0.141
TCATTGCA	-0.0364
AATTAGCG	0.113
AGAACGTA	0.0108
ACTTCCAG	0.0169
AGTAGCCG	-0.117
CCCGCGCC	-0.173
CAGACGTA	-0.0998
GACCAAGA	-0.145
TTCACAAA	0.151
CAGGGATA	-0.0205
CGCACGTA	-0.1
ACGCCCCC	-0.372
CCCAGCTA	-0.153
GCTCATCC	-0.279
AAACCGCC	-0.173
GAATATTA	0.4
GGGCGTAC	-0.152
TTACCTAA	0.223
GTTGAAGA	0.0288
ACCATTTA	0.173
CTGCGGTA	0.0276
CCAATGCG	-0.107
ACCATAAG	0.0319

Sequence	PBM 8-mer E-score
ATATCTGA	0.191
AGACGACA	-0.18
CATTCCCA	-0.0789
ATGCCGCA	0.00868
ACCTGGAA	-0.067
GAGATTGA	-0.0698
CCCCTCGA	-0.217
CAATGGGC	-0.289
CCCAGGTA	-0.0822
AGAGAGTA	0.0537
TCTGGAAA	0.0485
GCTTATAC	0.166
AAGGGATG	-0.0857
CGCTGCTA	-0.044
TCCACCGA	-0.192
ACGTCCAA	-0.142
GTTGGTAA	0.093
GAGGCAAC	-0.183
ACGATTCG	-0.0701
GGCTTAAC	-0.0456
ATGAGCGG	-0.204
CGTGGAGA	-0.112
GATCTCAC	-0.0393
TCTCGTCA	-0.0921
ATCTATGC	-0.115

Sequence	PBM 8-mer E-score
CCGACTAA	-0.0102
AAGATCAA	0.22
GACACTAA	0.292
CTGCATGC	-0.0882
AGGGTCTC	-0.351
CTCCGCGC	-0.207
AATAGCCA	-0.00268
GTTGCAAA	0.129
AATTAATC	0.366
AGTGCCTC	-0.204
AAACGCAC	-0.11
GAGAACTC	-0.301
AACAGCCC	-0.264
ATCGTACG	-0.0757
CGCGATAG	-0.182
AGATCCAC	-0.0302
AATGTGAC	0.0501
GAGCGGAA	-0.165
CACGAGGG	-0.271
AGGACTAA	-0.0184
AAAGTCAT	0.0922
AGCCATTG	-0.029
AGCAAGGA	-0.0923
ACAGGTAG	-0.127
CACCCGTC	-0.177

Sequence	PBM 8-mer E-score
CAAGTGGG	-0.0905
AAACGCGC	0.104
CGTGTGCA	-0.0742
AACAACAA	0.337
CAACGGCC	-0.19
AAGTGTAA	0.271
ACTCACTG	-0.0896
ATCTGCTC	-0.146
AAACACAT	0.16
AGGGCCCT	-0.239
TACTGCTA	-0.0808
AAATGACT	0.114
GCAGGTTA	-0.0406
ATCAGACG	-0.0188
ACTGCGGG	-0.0545
CCCAATAA	0.14
ACGAGGGG	-0.273
GCGTTGAC	-0.0454
TGGAGCAA	-0.161
AGAATAGC	-0.0532
ATCCTCGG	-0.28
AGTCGTAC	-0.107
AGCTTACG	-0.217
GAGACAGC	-0.199
CCCACCTC	-0.162

Sequence	PBM 8-mer E-score
GACCCTCA	-0.25
GTATAAGA	0.278
AATGCTGA	-0.0342
GCCGCTGA	-0.231
TGCCCGCA	-0.214
CGAAGTCC	-0.166
ATATACGC	0.291
TCCACAGA	-0.0394
GAACTCCA	-0.136
CGAACTGA	-0.0428
CGGAGACG	-0.19
CGCCACTA	0.0411
ATCGTGCG	0.00859
CGCCTAAG	-0.113
CCAAGTCG	-0.149
AATTATGA	0.317
GCAGATAA	0.253
TCGACCCA	-0.167
ATGCATGC	-0.162
AACGGAAC	-0.066
AGCAATAA	0.174
GACTTGCA	-0.075
AGGCAAAT	0.156
AAAAACAG	0.16
ATTCAAAT	0.221

Sequence	PBM 8-mer E-score
CTCGCTAA	0.00144
AGATCGCT	-0.111
GAGCGTTA	-0.0123
ATTGGCAC	0.11
CTACGGAC	-0.187
GATACGGA	-0.0413
TAAGATCA	0.126
GCAAGCCA	-0.218
GAATATGC	0.119
AGTTGTAT	0.337
ATTACGGG	0.108
ACCCCGCA	-0.305
CCTGTTGA	-0.0613
AGAGTACA	0.0581
AGACACCA	-0.0804
GAGCTATA	0.0681
AGTTATCA	0.242
CGCCTCCG	-0.283
ATTCTCTG	0.0817
ACCCGAGC	-0.199
TGTATCAA	0.186
AGAACTAT	0.236
GGTGTCAC	-0.232
ATACCGGG	0.0584
CTACTGAC	-0.0554

Sequence	PBM 8-mer E-score
AGTGCTGG	0.0396
GCCAGACA	-0.239
CGGGAAGA	-0.216
ATGTTATC	0.308
ACAAACTG	0.0992
AGGCGAGG	-0.263
ATGGGGAC	-0.108
ACCTCTCA	-0.199
CTACTAAC	0.165
GCCGCCGC	-0.306
ATGCCGAC	-0.143
ACTACCCG	-0.121
CTCATCGA	-0.0915
AAAGCAGC	-0.00509
AACGCCAC	-0.126
CATGATTA	0.228
CAAAGACG	-0.0962
ACGAGTTC	-0.00078
CTACCTTC	-0.249
CAGCAATG	-0.191
AGACGGTG	-0.11
CAAGACAG	-0.0393
GGCCAACA	-0.00591
ACACAGAT	0.102
CCCAGCGA	-0.141

Sequence	PBM 8-mer E-score
CCACTAGC	-0.28
AATTCATG	0.172
CCACAAGG	-0.331
GCGGATCC	-0.275
AGGTGAAA	0.0211
ACTCACAA	-0.0191
CAATGCCC	-0.251
CACCGATC	-0.0584
GCGACGAC	-0.211
AGAGTGGA	0.0118
GAACGCGC	0.0569
ACCACAAT	0.0475
CCATAGAG	-0.136
GCCGTTCA	-0.0858
GAGACCTA	-0.287
GGAATAGA	0.0718
CAGAGAAG	0.0252
CGACCGAA	0.0227
GAAGTTGA	0.0448
AAGGGTAT	-0.0285
AGAGTGCG	-0.0882
AGATCTAA	0.159
GCCCGTAA	-0.0524
GTTATTTA	0.395
AGCTTAGC	-0.113

Sequence	PBM 8-mer E-score
AAAGCTGA	-0.0551
AGGTTTCC	-0.267
CAATCGAC	0.0172
ACGAGAGT	-0.216
AGCGTTAG	-0.134
CCCTTAGG	-0.298
GTGAAAAA	0.0748
AGAGGAAC	-0.217
CTCCTCCA	-0.32
ATGAATAG	0.131
CAGGCGTC	-0.261
ACTGACAG	-0.118
ATGAACAG	-0.0132
ATGCCGTG	-0.155
AAGCTAGC	-0.143
AGGCTGAC	-0.204
CCATAATC	0.136
AATCTGTG	0.0128
AACTAGCG	0.0587
CCAAGCAG	-0.0707
AGGCGTGG	-0.239
AACCAGTC	-0.137
CTCATGAC	-0.0699
AGACGGCG	-0.146
CTCGCGAC	-0.111

Sequence	PBM 8-mer E-score
CCAAGACA	-0.0596
TACGGGCA	-0.173
ATAGATAG	-0.0217
ACGCACAT	0.15
AGTCTTTA	0.0956
AGTATCAT	0.128
ACACGTCA	-0.0942
ATTCCTCA	0.129
CCGAAACA	0.00391
CTTGACTA	0.0728
AGCTGGAA	-0.0501
CCATTGAA	0.0154
CTATCAGC	-0.095
GTCGGCTA	-0.13
GGATCGTA	-0.0709
CTAACCCC	-0.226
GAGGGATA	-0.0756
ACACTCCA	-0.0634
ATTACGTG	0.217
